# About 7,500 (2.1%) of roughly 360,000 compounds were called active. Inconclusive means that the source gave no clear call. Such entries were picked first, then a sample of the others. Calls follow the shape of the dose curve; as a rule, active = well fitted cell-killing curve with a large enough effect; inconclusive = small, poorly fitted or top-dose-only effect, or effect the other way, or another doubt; inactive = no such curve, though single readings can be large or run the other way. No potency is given beside an inconclusive call; the fits are too rough.
# Assay: qHTS for induction of synthetic lethality in tumor cells producing 2HG: qHTS for the HT-1080-IDH1KD cell line;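 as to activity, negative = toxicity: 0% = DMSO wells and -100% = cell-free medium wells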
# Conditions: HT-1080 IDH1 knockdown viability, ATP luminescence, 48 h; activity, negative = toxicity: at 46.1 µM (top of the series) unless noted
# How it was run: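 CellTiter-Glo luminescence after 48 h compound exposure at 37 degrees C of IDH1-knockdown HT-1080 cells in 5% FBS RPMI. %Activity scaled between DMSO wells and cell-free media wells, with curves fitted and assigned curve classes.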
# Potency is read from the fitted curve at half-maximal effect; tags tell the direction and shape of the fitted curve.
SMILES,"activity, negative = toxicity",Potency
O=C(COC(=O)C1CC(=O)N(Cc2ccccc2)C1)Nc1cccc([N+](=O)[O-])c1 (centres undefined),inactive: 6.73%,
CC(C)(C)C1=C(C#N)C(c2cccnc2)C(C#N)=C(N)O1 (centres undefined),inactive: 3.6%,
CCN1C(=O)[C@H]2[C@@H](c3ccc(C)cc3)N[C@]3(CCCN(Cc4ccc(C)cc4)C3=O)[C@H]2C1=O,,"inconclusive [cytotoxic, single point]"
C[C@@H]1CN([C@@H](C)CO)C(=O)CCCn2nncc2CO[C@@H]1CN(C)C(=O)Nc1ccc(N2CCN(C)CC2)cc1,inactive: 5.36%,
CC(=O)N(CCC(c1ccccc1)c1ccco1)Cc1cccs1 (centres undefined),,"inconclusive [cytotoxic, single point]"
Cc1ccc(C)c(-c2csc(N/N=C/c3ccco3)n2)c1,inconclusive: -26.8% [cytotoxic],
O=C1Nc2ccc(Br)cc2C1=C1CCCCC1,,active: 16.4 µM
O/N=C(\c1ccc(Cl)cc1)c1ncc(C(F)(F)F)cc1Cl,,"inconclusive [cytotoxic, single point]"
COc1cccc(S(=O)(=O)Nc2ccc3c(c2)[C@@H]2C[C@@H](CC(=O)NCc4ccc(Cl)cc4)O[C@@H](CO)[C@@H]2O3)c1,,active: 6.51 µM
OC(c1ccc(Cl)cc1)c1ncc(-c2cccc(F)c2)[nH]1 (centres undefined),,"inconclusive [cytotoxic, single point]"
COc1cc(-c2noc(C)c2-c2ccc3[nH]ccc3c2)cc(OC)c1OC,,active: 0.0366 µM
CSCCC(C(=O)Nc1c(C)cccc1C)N(Cc1ccccc1)Cc1ccccc1 (centres undefined),,"inconclusive [cytotoxic, single point]"
Cc1ccccc1NC(=S)NC(=O)/C=C/c1ccco1,inactive: -8.84%,
Cc1cc(C)cc(OCCNC(=O)c2cc(S(=O)(=O)N3CCOCC3)ccc2F)c1,,"inconclusive [cytotoxic, single point]"
Cc1c(C(=O)Nc2cccc(Cl)c2)oc2ccc(S(=O)(=O)N3CCC4(CC3)OCCO4)cc12,inactive: -2.24%,
C[C@@]12C(=O)Nc3ccccc3C(=O)N1[C@H]1c3cc(Cl)ccc3OC[C@@H]1[C@@H]2c1ccccc1,,active: 18.4 µM
CCN(c1ccccc1)S(=O)(=O)c1ccc(N)c(OC)c1,,"inconclusive [cytotoxic, single point]"
CC(C)NC(=O)C1C(c2ccc(C(F)(F)F)cc2)=Nc2ccccc2N1C(=O)c1cc2ccccc2[nH]1 (centres undefined),,"inconclusive [cytotoxic, single point]"
NCCCC(=O)N1c2ccccc2Sc2ccc(Cl)cc21,,"inconclusive [cytotoxic, single point]"

# Source: PubChem BioAssay AID686971 (National Center for Advancing Translational Sciences (NCATS), 2013)
